Test results as given in PubChem BioAssay AID488895 (Broad Institute, 2010).
“And” between values parts separate entries of the source, which are not always exact repeats. Equal values may be shown once. About 120 (0.035%) of roughly 340,000 compounds were called active. The shares of active, inactive and inconclusive entries below differ from those in the screen.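 The calls were made as follows: active = mean replicate inhibition at least 50% and at least half of replicates individually reaching 50%; inconclusive = only one of the two criteria met; inactive = neither criterion met.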

assay: E. coli Tat export inhibitors, primary screen, MC4100, TorA-mCherry reporter, fluorescence, single point (AID 488895); settings: at 10 µM, hits give high values;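 also: exported cargo escapes ClpAP degradation while cytoplasmic cargo is degraded and loses fluorescence; 0% = median of neutral control wells and 100% = median of NaSCN control wells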

Compound | inhibition
O=C(CSc1ncccn1)N/N=C/c1cccs1 | inconclusive: 30.9%
O=C(NC(Cc1ccccc1)c1nc2ccccc2[nH]1)c1ccc(Cl)c([N+](=O)[O-])c1 (configuration not stated) | inconclusive: 28.4%
Cc1ccc(S(=O)(=O)CCNC(=O)Cc2ccc(Cl)cc2)cc1 | inconclusive: 39.2%
O=C(CSc1ncnc2c1nnn2Cc1ccccc1F)NCC1CCCO1 (configuration not stated) | inconclusive: 40.9%
COc1ccc(Cl)cc1S(=O)(=O)Nc1noc2ccccc12 | inconclusive: 21.6%
CC(O)(CC(=O)CC(=O)c1ccccc1)c1ccccc1 (configuration not stated) | inconclusive: 35.2%
Cc1ccc(OC(=O)c2cc(=O)c3ccccc3o2)cc1 | inconclusive: 31%
O=C(Nc1nnc(-c2ccncc2)o1)c1ccc2ccccc2c1 | inactive: -5.78%
O=C(CCNc1n[nH]c(=O)[nH]c1=O)N1CCCCC1 | inconclusive: 28.8%
COc1ccc(/C=C2\SC(=O)N(CCNC(=O)C3CC4C=CC3C4)C2=O)cc1 (configuration not stated) | inconclusive: 34.3%
COc1cc2c(cc1OC)CN(C(=S)Nc1ccccc1Cl)CC2 | inactive: 7.56%
CCC(=O)NC(c1ccc(OC)c(OC)c1)c1cc(Cl)c2cccnc2c1O (configuration not stated) | inactive: -4.98%
COC(=O)COc1cc2ccccc2cc1C(=O)Nc1ccccc1 | inconclusive: 23.7%
COC(=O)COc1ccc(-n2cnnn2)cc1 | inconclusive: 29%
C=C1CSc2nc(=O)c3c4c(sc3n21)CCCC4 | inconclusive: 37.8%
Cc1cc(=O)[nH]c(SCC(=O)NCc2ccc3c(c2)OCO3)n1 | inconclusive: 30.7%
Cc1ccccc1NC(=O)NCCN1C(=O)C2C3C=CC(C3)C2C1=O (configuration not stated) | inconclusive: 36.4%
O=c1c(Cl)c(Nc2cccc(Cl)c2)cnn1-c1nc2ccccc2s1 | inactive: 10.2%
Cc1ccc(-c2nn(-c3ccccc3)cc2CC(=S)N2CCOCC2)cc1 | inconclusive: 20.6%
O=C(NCc1ccc(Cl)cc1)c1cccc(NC2=NC3CS(=O)(=O)CC3S2)c1 (configuration not stated) | inconclusive: 38.3%
Cc1ccc2nc(C(=O)O)c(C(=O)O)nc2c1 | inconclusive: 36%
Nc1ccccc1C(=O)NCC1(c2ccccc2)CCCC1 | inconclusive: 27.6%

Compound | inhibition
NC(=S)NN=C1c2ccccc2-c2c(F)c(F)c(F)c(F)c21 | inconclusive: 39%
Cc1cccc2c1cnn2C(=O)CCC(=O)N1CC(C)CC(C)C1 (configuration not stated) | inconclusive: 30.2%
COCCNc1nc(N)c([N+](=O)[O-])c(NCC2CCCO2)n1 (configuration not stated) | inconclusive: 32%
COc1ccccc1NC(=O)C1=C(C)Nc2ncnn2C1c1ccc(C)o1 (configuration not stated) | inconclusive: 26%
CCC(C)OC1OC(CO)C(O)C(O)C1NC(C)=O (configuration not stated) | inconclusive: 22.7%
O=C(/C=C/N1CCOCC1)c1coc2ccccc12 | inactive: -1.1%
Cc1ccc(NC(=O)NNC(=O)c2cc3ccccc3cc2O)cc1C | inactive: -0.309%
C1=C(CCNc2ncnc3c2cnn3-c2ccccc2)CCCC1 | inconclusive: 25.8%
CN(C)c1cccc(C(=O)N/N=C/c2ccccc2F)c1 | inconclusive: 23.2%
CCCN(C(=O)Cn1c(C(F)(F)F)nc2ccccc21)C1CCS(=O)(=O)C1 (configuration not stated) | inconclusive: 38.3%
O=C(NNC1=C(C(=O)C(F)(F)F)CCC1)c1cccnc1 | inactive: -2.62%
Cn1c(=O)[nH]c2ncn(C)c2c1=O | inconclusive: 34.2%
C(C#CCCCCCCCCC[n+]1ccccc1)#CCCCCCCCCC[n+]1ccccc1 | active: 97.6% and active: 81.6%
O=C(COC(=O)Cc1n[nH]c(=O)c2ccccc12)Nc1c(Cl)cccc1C(F)(F)F | inactive: -3.38%
CCOC(=O)Cc1c[nH]c2ccc([N+](=O)[O-])cc12 | inconclusive: 32%
CCOC(=O)c1cc2c(=O)n3ccccc3nc2n(CCOC)c1=NC(=O)c1ccncc1 | inactive: 0.203%
CC(C)(C)OC(=O)[C@H](Cc1ccccc1)NC(=O)c1nc[nH]c1C(=O)NC1CCN(C(=O)OC(C)(C)C)CC1 | inconclusive: 36.4%
O=C(O)C1C(=O)NCC1c1ccccc1 (configuration not stated) | inconclusive: 30.2%
CCn1cc(C(=O)O)c(=O)c2cc(F)c(N3CCN(C(=S)NC(=O)c4ccc(F)c(F)c4)CC3)cc21 | active: 91.2%
CO[C@H]1/C=C/O[C@@]2(C)Oc3c(C)c(O)c4c(O)c(c5c(c4c3C2=O)NC2(CCN(CC(C)C)CC2)N=5)=NC(=O)/C(C)=C\C=C\[C@H](C)[C@H](O)[C@@H](C)[C@@H](O)[C@@H](C)[C@H](OC(C)=O)[C@@H]1C | active: 107%
Cc1cc(C)c(C#N)c(SCS(=O)c2ccc(C(C)(C)C)cc2)n1 (configuration not stated) | inconclusive: 30.3%
CC(C)c1ccc(C(=O)CN2C(=O)NC3(CCc4ccccc43)C2=O)cc1 (configuration not stated) | inconclusive: 34%

Compound | inhibition
COCC(=O)Nc1ccccc1Br | inconclusive: 26.7%
CCN1C(=O)[C@@H]2[C@@H](c3ccc(-c4ccc(C(C)=O)cc4)cc3)N3CCC[C@@]3(C(=O)OC)[C@@H]2C1=O | inactive: -8.91%
CC1CN(S(=O)(=O)c2ccc(C(=O)Nc3ccccc3F)cc2)CC(C)O1 (configuration not stated) | inconclusive: 25.7%
COc1ccc(/C(C)=N/NC(=O)CNC(=O)c2ccncc2)c(OC)c1 | inconclusive: 23.6%
N#Cc1cn(CC(=O)N2CCCc3ccccc32)c2ccccc12 | inconclusive: 30.3%
Cc1cc(C(F)F)nn1CC(=O)NC1C(=O)N2C(C(=O)O)=C(CSc3nnnn3C)CSC12 (configuration not stated) | inactive: -8.47%
COc1ccccc1NC(=S)NC(=O)C(C)C | inconclusive: 25.4%
Cc1ccsc1C1C(C#N)=C(N)OC2=C1C(=O)CC(C)C2 (configuration not stated) | inconclusive: 36.2%
CC(C)OC(=O)c1c(NC(=O)c2ccco2)sc2c1CCCC2 | inconclusive: 31.4%
Cc1cc(C)n2nc(SC(C)C(=O)N3CC(C)OC(C)C3)nc2n1 (configuration not stated) | inconclusive: 27.3%
O=C(Nc1cccnc1Cl)c1cccs1 | inactive: -8.88%
Cc1cc(C(=O)c2ccccc2)c(NC(=O)CCl)s1 | inconclusive: 31.1%
CC(SCC(=O)Nc1ccc(F)cc1)c1nc2ccccc2c(=O)[nH]1 (configuration not stated) | inconclusive: 34.1%
CCCn1c(N)c(C(=O)CSc2nc(C)cs2)c(=O)n(C)c1=O | inconclusive: 27.7%
Cc1cc(C)c(C#N)c(Oc2ccccc2Br)n1 | inconclusive: 21.3%
CCCCOCCOCCOCCCC | inconclusive: 24.2%
Cc1ccc2[nH]c(=O)c(CNS(=O)(=O)c3ccccc3)c(-c3ccccc3)c2c1 | inconclusive: 30.4%
Cc1ccc(-c2cc(C(=O)OCC(=O)N(C)c3c(N)n(Cc4ccccc4)c(=O)[nH]c3=O)c3ccccc3n2)o1 | inconclusive: 29.4%
Cc1onc(-c2ccccc2)c1C(=O)Nc1nc(-c2cc(F)ccc2F)cs1 | inconclusive: 23%
CC(NC(=O)c1ccc([N+](=O)[O-])o1)C12CC3CC(CC(C3)C1)C2 (configuration not stated) | inconclusive: 22.7%
O=C(CCN1CCN(c2ccccc2)CC1)N/N=C/c1ccc([N+](=O)[O-])o1 | inactive: 6.92%
COc1cc(C(=O)NC(c2ccccc2)c2ccccc2)cc(OC)c1C | inconclusive: 29.3%

Compound | inhibition
CC1CCN(Cc2c(C(=O)N/N=C/c3cc(Cl)ccc3O)nnn2-c2nonc2N)CC1 | inactive: -18.3%
O=C(Nc1ccc(C2=NCCN2)cc1)c1ccc(C(=O)Nc2ccc(C3=NCCN3)cc2)c([N+](=O)[O-])c1 | active: 63.5%
CN[C@@H]1[C@H](O)[C@H](NC)[C@H]2O[C@@]3(O)C(=O)C[C@@H](C)O[C@H]3O[C@@H]2[C@H]1O | active: 119%
CCCCN(CCCC)C(=O)c1cn(CC)c2cc(N3CCN(C)CC3)c(F)cc2c1=O | active: 71.2%
Cc1ccc(C(=O)c2cnc3ccccc3c2-c2ccccc2)cc1 | inconclusive: 34.4%
O=C(NCc1ccccc1)c1ccc(F)c(F)c1 | inconclusive: 35.7%
Nc1nc(SCC(=O)Nc2ncc(C(F)(F)F)cc2Cl)n[nH]1 | inactive: -10.5%
C=CCN1C(=O)c2ccc(C(=O)N3CCC(C(N)=O)CC3)cc2C1=O | inconclusive: 39.8%
CSc1ccccc1OCc1cc(C(=O)N(C)Cc2c(C)n[nH]c2C)no1 | inconclusive: 34.1%
O=C(Nc1nc(-c2cccs2)cs1)c1ccc([N+](=O)[O-])o1 | inactive: -19.3%
COC(=O)c1c(C(=O)OC)c(-c2ccc(C)cc2)n2c1CCC2 | inactive: -4.85%
CC(C)(C)OC(=O)N(CCc1ccccc1)Cc1cccc(OCc2cccc(NC(=O)/C=C/c3ccccc3)c2)c1 | inconclusive: 35.8%
Cc1cc(C)cc(N(CCC(=O)Nc2nnc(C3CC3)s2)S(=O)(=O)c2ccc(Cl)cc2)c1 | inactive: -1.53%
O=C(N[C@H](CO)[C@H](O)c1ccc([N+](=O)[O-])cc1)C(Cl)Cl | inactive: 5.21%
Cc1ccc(C(=O)Sc2cccccc2=O)cc1 | active: 82.5%
O=C(CSc1nc(O)c(Cc2ccccc2F)c(=O)[nH]1)N1CCCCCC1 | inconclusive: 22.9%
O=C(NNc1ccnc2cc(Cl)ccc12)C1CCCCC1 | inconclusive: 34.8%
COc1ccc(S(=O)(=O)NCc2ccco2)c2ccccc12 | inconclusive: 28.1%
[N-]=[N+]=NC1C[C@H](n2ccc(=O)[nH]c2=O)O[C@@H]1CO (some centres not stated) | inactive: -1.33%
Cc1ccc(S(=O)(=O)NC(C)(C)CSc2nnc(Nc3ccccc3)s2)cc1 | inconclusive: 33.7%
CCCCCCCCCCCCCCCC(O)C[N+](C)(C)CCO (configuration not stated) | active: 51.9%
